In PMC4336329 (PLoS ONE, 2015):
Screen size: about 310,000 compounds; about 14,000 (4.5%) showed an effect of 50% or more. The effect is printed as a negative number. Some of the results follow.

Target: human ether-à-go-go-related gene (hERG) potassium channel (human, UniProt Q12809)
Test: primary screen, population patch clamp on CHO cells stably expressing hERG
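Note: peak tail current of the secondary pulse compared with the same well before compound.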

Chain of human ether-à-go-go-related gene (hERG) potassium channel (Q12809 whole entry, looked up): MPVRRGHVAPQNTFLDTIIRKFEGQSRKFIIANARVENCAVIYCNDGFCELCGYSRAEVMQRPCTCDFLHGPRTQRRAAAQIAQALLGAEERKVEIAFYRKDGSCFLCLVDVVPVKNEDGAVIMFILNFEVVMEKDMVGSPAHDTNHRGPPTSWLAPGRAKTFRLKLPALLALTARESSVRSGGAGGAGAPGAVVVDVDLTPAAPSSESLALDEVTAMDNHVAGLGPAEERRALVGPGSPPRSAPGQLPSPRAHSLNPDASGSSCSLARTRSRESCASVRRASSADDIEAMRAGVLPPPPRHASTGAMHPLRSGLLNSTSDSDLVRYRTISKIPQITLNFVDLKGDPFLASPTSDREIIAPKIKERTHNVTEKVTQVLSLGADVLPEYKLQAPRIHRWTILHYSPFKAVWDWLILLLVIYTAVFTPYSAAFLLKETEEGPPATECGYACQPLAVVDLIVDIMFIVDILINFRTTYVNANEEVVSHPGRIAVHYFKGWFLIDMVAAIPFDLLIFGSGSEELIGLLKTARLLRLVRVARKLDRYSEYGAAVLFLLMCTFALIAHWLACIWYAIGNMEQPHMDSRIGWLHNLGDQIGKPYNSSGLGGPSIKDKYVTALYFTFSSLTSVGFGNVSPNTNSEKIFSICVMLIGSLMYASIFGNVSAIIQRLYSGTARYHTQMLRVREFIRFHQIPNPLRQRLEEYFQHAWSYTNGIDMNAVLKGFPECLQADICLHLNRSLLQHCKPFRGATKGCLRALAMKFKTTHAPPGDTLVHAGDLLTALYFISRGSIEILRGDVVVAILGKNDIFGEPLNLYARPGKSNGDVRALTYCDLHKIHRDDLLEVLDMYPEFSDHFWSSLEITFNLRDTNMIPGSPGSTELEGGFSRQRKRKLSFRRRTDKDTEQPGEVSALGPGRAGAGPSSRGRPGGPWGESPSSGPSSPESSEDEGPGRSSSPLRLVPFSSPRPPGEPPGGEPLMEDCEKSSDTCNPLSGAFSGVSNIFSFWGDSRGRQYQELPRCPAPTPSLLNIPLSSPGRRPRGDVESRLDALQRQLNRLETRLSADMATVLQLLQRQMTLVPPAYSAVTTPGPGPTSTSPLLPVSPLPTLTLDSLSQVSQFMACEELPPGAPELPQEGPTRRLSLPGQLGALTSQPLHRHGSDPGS

SMILES | hERG current change (%, negative = inhibition) at 10uM
Cc1nc2c(-c3ccc(F)cc3)c(C)nn2c(C)c1CCC(=O)N1CCN(c2ccccn2)CC1 | -69.5%
O=C(O)CN1C(=O)c2cccc(Oc3ccc(Cl)cc3)c2C1=O | 16%
N#Cc1ccc2[nH]cc(CCO)c2c1 | 24.4%
Cc1cc(N)n(-c2ncnc3scc(-c4ccccc4)c23)n1 | -12.2%
O=S(=O)(NCC1CCCO1)c1cnc(Cl)c(Br)c1 (stereo not shown) | 1.2%
O=C1CCCC2=C1C(c1cccs1)CC(=O)N2c1ccc(F)cc1 (stereo not shown) | -2.06%
COC(=O)c1ccc(CNC(=O)CSC2=NCCS2)cc1 | 7.07%
Cc1cc(OCC(=O)OCC(=O)NC2CCCCC2C)ccc1Cl (stereo not shown) | 0.466%
O=C(c1ccccc1)c1ccccc1 | 1.26%
COc1ccccc1C(=O)N1CCN(Cc2nc(CC3CC3)no2)CC1 | 9.93%
Cc1ccc(NC2CCCN(C(=O)CN3C(=O)c4ccccc4C3=O)C2)cc1C (stereo not shown) | 11.5%
Cc1sc2ncn(CC(=O)N3CCC(C(N)=O)CC3)c(=O)c2c1S(=O)(=O)N1CC(C)CC(C)C1 (stereo not shown) | 26.4%
COc1cc(OC)cc(C(=O)NCCCNC(=O)c2cccnc2)c1 | 7.43%
COc1ccccc1C(CNC(=O)CNC(=O)c1ccc(Cl)c(Cl)c1)N1CCCC1 (stereo not shown) | -32.9%
N#CC1=C(N)Oc2cc(Nc3ccccc3)ccc2C1c1ccncc1 (stereo not shown) | -15.5%
COc1ccc(S(=O)(=O)N2CCCC2c2cccs2)cc1 (stereo not shown) | -0.306%
O=C(COC(=O)c1ccc([N+](=O)[O-])s1)Nc1ccc(Cl)cn1 | -0.616%
CCOC(=O)c1sc(NC(=O)CSc2nc(C)cc(C)c2C#N)c(C#N)c1C | 8.19%
COc1ccc(S(=O)(=O)Nc2ccc(F)cc2F)cc1C(=O)N1CCOCC1 | 8.33%
COc1ccc(S(=O)(=O)Nc2ccccn2)cc1C(=O)Nc1ccccc1 | -2.18%
C=CCc1c(C)nc(SC)nc1Nc1ccc(C(C)=O)cc1 | -27.9%
CCN1CCN(C(=O)CN(CC)S(=O)(=O)c2ccc(F)cc2)CC1 | 8.19%

SMILES | hERG current change (%, negative = inhibition) at 10uM
CC1CCN(c2ccc([N+](=O)[O-])cc2C(N)=O)CC1 | -19.4%
Cc1ccc(Oc2nc(-c3ccccc3)ncc2S(C)(=O)=O)cc1 | 11.3%
Cc1ccc2nc(-c3ccccc3)cc(C(=O)NCCCn3ccnc3)c2c1 | -40.7%
COc1ccccc1-n1c(SCC(=O)O)nc2sc3c(c2c1=O)CCC3 | 14.9%
COc1cc(/C=N/OCC(=O)Nc2cc(C)on2)ccc1OCc1ccccc1 | 26%
O=C(CNC(=O)c1ccncc1)N/N=C/c1cc(Br)ccc1OCc1ccccc1 | 3.49%
CCOc1cc(C(=O)Nc2ccc([N+](=O)[O-])cn2)cc(OCC)c1OCC | -29%
O=S(=O)(CCN1CCSCC1)c1ccc(Cl)cc1 | 10.1%
CCn1nnnc1SCC(=O)N1c2ccccc2CCc2ccccc21 | 2.92%
CC(=O)N(Cc1cc(=O)[nH]c2ccccc12)c1ccc(C)cc1 | -14%
COc1ccc(C=Nc2cccc3ncccc23)cc1 | 4.44%
O=C(COC(=O)c1ccccc1Nc1cccc(C(F)(F)F)c1)NCc1ccco1 | -1.48%
COc1cccc(C(=O)NC(=S)N2c3ccccc3CC2C)c1OC (stereo not shown) | 8.64%
CCS(=O)(=O)c1ccc2c(c1)N(S(C)(=O)=O)CC(C(=O)NN)O2 (stereo not shown) | 27.5%
CC1(C)Cc2ccccc2-c2nnc(-c3ccccn3)n21 | 1.13%
COc1ccc(C(=O)N2CCCC(CCC(=O)NCc3ccc(F)c(F)c3)C2)o1 (stereo not shown) | -25%
O=C1/C(=C\c2cccc(O)c2)SC(=S)N1Cc1ccccc1 | 6.61%
CCOC(=O)c1c(N)sc2c1C1CCN2CC1.Cl | -2.25%
O=C(CN(C1CCCCC1)S(=O)(=O)c1ccccc1)NCc1ccco1 | -22%
N#CC1(c2ccccc2)CCCN1C(=O)c1ccc(Br)o1 (stereo not shown) | -8.37%
Clc1ccc(N2CCN(Cc3ccc(Br)o3)CC2)cc1 | 7.93%
COc1ccc(-c2ccc(SCC(=O)Nc3cccc(C(C)=O)c3)nn2)cc1OC | 0.703%

SMILES | hERG current change (%, negative = inhibition) at 10uM
CCOc1ccc2nc(/N=C/c3nc(-c4ccccc4)oc3O)sc2c1 | 4.73%
O=C(O)CCC(=O)NNc1nc(-c2ccccc2)c2cc(Cl)ccc2n1 | 14.4%
CC(NC(=O)Cn1nc(-c2ccccc2)c2ccccc2c1=O)c1ccccc1 (stereo not shown) | -14.3%
c1ccc(CSc2nnc3c(n2)OC(c2ccco2)Nc2ccccc2-3)cc1 (stereo not shown) | 10%
Cc1ccc(NC(=O)CSc2nc(C)c(Cc3ccccc3)c(=O)[nH]2)cc1 | 13.4%
CCOc1ccc(-c2c(=O)n(O)c3ccccc3[n+]2[O-])cc1 | 20.8%
O=C1CCc2cc(S(=O)(=O)Nc3ccccc3)ccc2N1 | -3.42%
COc1ccc(-c2noc(CCCC(=O)N3CCOCC3)n2)cc1 | 30.7%
C=CCNC(=S)Nc1sc2c(c1C(=O)OCC)CC(C(C)C)OC2 (stereo not shown) | 12.3%
CCc1ccccc1NC(=O)NNS(=O)(=O)c1cc(C)ccc1C | -0.925%
COc1ccc(N2CCN(c3ncnc4scc(-c5ccc(C)cc5)c34)CC2)cc1 | 13%
CC(C)C(=O)NNc1ccccc1 | 1.77%
Cc1ccccc1C(=O)Nc1sc2c(c1C(=O)O)CCC2 | 19%
O=C1[C@@H]2Cc3c([nH]c4ccccc34)C(c3cccc([N+](=O)[O-])c3)N2C(=O)CN1C1CCN(Cc2ccccc2)CC1 (stereo partly shown) | 2.2%
O=S(=O)(Nc1ccc2c(c1)oc1ccccc12)N1CCCC1 | 13.9%
N#Cc1cccc(NC(=O)Cc2ccsc2)c1 | 17.5%
CN(C)c1cccc2c(C=C(C#N)C#N)ccc(N(C)C)c12 | -45.1%
CC(OC(=O)c1ccco1)C(=O)Nc1ccc(C(F)(F)F)cc1 (stereo not shown) | -16%
CC1CCN(Cc2c(C(=O)N/N=C/c3cc(Br)ccc3O)nnn2-c2nonc2N)CC1 | 19.9%
Oc1ccc(N2CCN(C(c3ccncc3)c3nnnn3C3CCCC3)CC2)cc1 (stereo not shown) | -17%
Nc1ccc(C#Cc2ccccc2)cc1 | -3.64%
Cc1ccc2sc(NC(=O)CN3C(=O)c4ccccc4C3=O)nc2c1C | 4.09%

SMILES | hERG current change (%, negative = inhibition) at 10uM
O=C(Cn1nc(Cc2cccnc2)c2ccccc2c1=O)NCc1ccc(F)cc1 | -46.4%
COc1ccc(NC(=O)Cn2c(=O)n(CC3CCCO3)c(=O)c3ccccc32)c(OC)c1 (stereo not shown) | 5.85%
CSc1cccc(NC(=O)CSc2ncccc2C(=O)Oc2cccc([N+](=O)[O-])c2)c1 | -1.61%
CC(C)(C)C(=O)NC1CC2CCCC(C1)N2C(=O)Nc1ccc(Cl)cc1 (stereo not shown) | 5.25%
C(=N\Nc1nncc2ccccc12)/c1ccccn1 | -24.7%
O=[N+]([O-])c1cc(Oc2cccnc2)cc([N+](=O)[O-])c1 | -25.2%
CN(C)CCCN(C(=O)c1cc(-c2cccs2)nc2ccccc12)c1nc2c(F)cccc2s1.Cl | -48.8%
COC(=O)C1=CN(c2ccc(OC)cc2)C=C(C(=O)OC)C1c1ccc(C)c([N+](=O)[O-])c1 | 2.74%
CC(=O)[C@H]1[C@H]([C@H](O)[C@H](O)CO)O[C@](O)(C(=O)O)C[C@@H]1O | 18.3%
COc1cc(CCC(=O)OCC(=O)Nc2ccc(F)c(F)c2F)cc(OC)c1OC | -2.69%
CCN(Cc1ccccc1)C(=O)C1CCC(CNc2c(N3CCOCC3)c(=O)c2=O)CC1 (stereo not shown) | 11.5%
COC(=O)c1ccc(C)c(NS(=O)(=O)c2ccc(OC)cc2)c1 | -40.9%
CCCCN(CCCC)CCCNC(=O)Cn1cc2c(n1)-c1c(oc(C(=O)N3CCCC3)c1C)CC2 | -42.5%
Cc1ccc(CN2[C@@H](c3ccccc3)COCCS2(=O)=O)cc1 | -4.74%
C=CCN(CC=C)C(=S)NC(=O)/C=C/c1ccccc1 | -13.8%
CCOc1ccc(N(CC(=O)NCCc2ccc(OC)cc2)S(C)(=O)=O)cc1 | -0.0301%
C/C(=N\NC(=O)CN1CCCCC1)c1cccc([N+](=O)[O-])c1 | -25.9%
Cc1ccc(CN2CCN(CC(=O)N3CCc4ccccc4C3)C2=O)cc1 | -50.8%
CN(C(=O)CS(=O)(=O)c1cccc(Cl)c1)c1ccccc1 | -2.67%
COc1ccc(N2CCN(C(CNC(=O)C(=O)NCCCn3ccnc3)c3ccco3)CC2)cc1 (stereo not shown) | 10%
O=C(N/N=C/C(Cl)=C\c1ccccc1)c1cnccn1 | -15.9%
O=C(CN(Cc1ccc2c(c1)OCO2)C(=O)CSc1nc2ccccc2o1)NC1CCCCC1 | -16.4%
